# Experimental data published in paper PMC4336329 (PLoS ONE, 2015).
# Out of some 310,000 compounds screened, about 14,000 (4.5%) showed an effect of 50% or more. Effects have a minus sign here. This is one part of the list.
# Target: human ether-à-go-go-related gene (hERG) potassium channel (human, UniProt Q12809)
# Experiment: primary screen, population patch clamp on CHO cells stably expressing hERG
# 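Further: peak tail current of the secondary pulse compared with the same well before compound.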
# Sequence of human ether-à-go-go-related gene (hERG) potassium channel (Q12809 whole entry, looked up): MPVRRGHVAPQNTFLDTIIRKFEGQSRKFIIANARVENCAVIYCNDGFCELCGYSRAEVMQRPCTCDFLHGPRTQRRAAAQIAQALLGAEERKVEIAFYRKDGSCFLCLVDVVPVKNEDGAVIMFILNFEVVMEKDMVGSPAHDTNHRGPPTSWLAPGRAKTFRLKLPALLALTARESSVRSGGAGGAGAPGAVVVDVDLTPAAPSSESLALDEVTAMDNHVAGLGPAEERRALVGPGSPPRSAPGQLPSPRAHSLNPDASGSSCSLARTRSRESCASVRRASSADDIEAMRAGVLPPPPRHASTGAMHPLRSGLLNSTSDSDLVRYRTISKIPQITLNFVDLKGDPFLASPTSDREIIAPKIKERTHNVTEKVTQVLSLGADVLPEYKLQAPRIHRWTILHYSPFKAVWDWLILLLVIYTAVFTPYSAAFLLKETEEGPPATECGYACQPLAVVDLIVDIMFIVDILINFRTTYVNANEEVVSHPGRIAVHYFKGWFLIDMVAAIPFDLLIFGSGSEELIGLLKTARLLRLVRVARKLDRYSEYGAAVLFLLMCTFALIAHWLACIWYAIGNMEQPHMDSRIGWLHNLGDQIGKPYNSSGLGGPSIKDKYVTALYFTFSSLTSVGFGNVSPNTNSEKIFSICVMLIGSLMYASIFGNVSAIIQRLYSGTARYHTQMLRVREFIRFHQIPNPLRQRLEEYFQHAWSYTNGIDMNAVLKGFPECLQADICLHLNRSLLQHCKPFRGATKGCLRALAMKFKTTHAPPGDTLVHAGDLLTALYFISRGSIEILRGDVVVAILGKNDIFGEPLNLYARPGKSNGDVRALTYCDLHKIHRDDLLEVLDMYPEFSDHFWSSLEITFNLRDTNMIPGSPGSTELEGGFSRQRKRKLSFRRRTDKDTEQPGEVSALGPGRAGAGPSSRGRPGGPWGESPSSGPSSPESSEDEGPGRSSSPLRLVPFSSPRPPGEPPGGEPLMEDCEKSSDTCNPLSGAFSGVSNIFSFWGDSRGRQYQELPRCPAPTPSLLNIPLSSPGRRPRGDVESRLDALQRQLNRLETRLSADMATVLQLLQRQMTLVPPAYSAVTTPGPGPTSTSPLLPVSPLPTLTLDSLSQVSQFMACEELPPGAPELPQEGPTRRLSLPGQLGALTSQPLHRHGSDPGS
row,SMILES,"hERG current change (%, negative = inhibition) at 10uM"
1,CCC(Oc1ccc2c(=O)c(-c3ccccc3OC)coc2c1)C(=O)OCc1ccccc1 (stereo not drawn),1.83%
2,CC12CCC(C(=O)NCCN3CCCCC3)(CC1=O)C2(C)C (stereo not drawn),-2.12%
3,COc1ccccc1/C=N/NC(=O)c1ccc(Br)cc1,-19.7%
4,CCOC(=O)c1ccc(NC(=O)NCc2ccc(OC)cc2)cc1,8.05%
5,CCOC(=O)C1=C2c3ccc4ccccc4c3CC(C)(C)N2C(=O)C1=O,-2.31%
6,O=C(NCc1ccccc1)C1=C[C@@H](c2ccccc2)C[C@@H](OCc2ccc(CO)cc2)O1,-14.4%
7,Cc1ccc(C(=O)NC(C)C(c2cccs2)N2CCCC2)s1 (stereo not drawn),15.8%
8,CCN1CCN(c2cc(=O)n(Cc3ccc(F)cc3)c(=O)[nH]2)CC1,17%
9,COc1cc2cc(C(c3nnnn3C3CCCC3)N(C)C3CCCCC3)c(=O)[nH]c2cc1OC (stereo not drawn),-18.5%
10,Cn1cnc([N+](=O)[O-])c1S(=O)(=O)c1cccc(Cl)c1,-7.42%
11,N#C/C(=C\c1ccc(OCc2ccc(F)cc2)cc1)C(=O)Nc1cccc(C(=O)O)c1,-9.19%
12,COc1cc(OC)nc(Oc2ccccc2C(=O)Oc2cccc(C)c2)n1,7.95%
13,COc1ccc(CC(=O)OCC(=O)Nc2cccnc2Cl)cc1OC,0.0826%
14,N#Cc1c2n(c3c(=S)nc[nH]c13)CCCCC2,10.1%
15,COC(=O)c1cc(-n2cccc2)ccc1N1CCOCC1,-1.75%
16,Oc1ccc(/C=N/Nc2nccnc2Cl)cc1,1.47%
17,CC(C)C(=O)Nc1ccc(C(=O)CSc2nnc(C3CC3)n2C2CC2)cc1,1.58%
18,NC(=O)c1nsc(C(=O)N(c2ccc(F)cc2)C(C(=O)NC2CCCC2)c2ccncc2)c1N (stereo not drawn),-0.193%
19,Cc1cc(C)cc(N(CC(=O)N2CCOCC2)S(=O)(=O)c2ccccc2)c1,-56.1%
20,O=C(CSc1nnc(NC(=O)c2cc(Br)ccc2Cl)s1)NCC1CCCO1 (stereo not drawn),18.9%
21,CCN(CC)S(=O)(=O)c1ccc(OC)c(-n2cnnn2)c1,11.5%
22,CCOC(=O)c1sc(NC(=O)CCN2CCC(C)CC2)c(C(=O)OCC)c1C,9%
23,CC1Cc2ccccc2N1C(=O)CSc1nnc(-c2ccc(S(=O)(=O)N3CCOCC3)cc2)n1C (stereo not drawn),-1.02%

row,SMILES,"hERG current change (%, negative = inhibition) at 10uM"
1,Cc1cccc(C)c1OCc1cc(C(=O)N2CCC(c3ccncc3)CC2)no1,-55.8%
2,CCc1ccc(S(=O)(=O)NCc2csc(C)n2)s1,1.6%
3,CC(C)CC(=O)NN1CCCCC1,2.9%
4,CN1CCN(c2ccc([N+](=O)[O-])cc2C(=O)N2CCOCC2)CC1,12.3%
5,CCOc1c(C)cc(S(=O)(=O)NCc2cccnc2)c(C)c1C,17.5%
6,CSc1ccc(S(=O)(=O)Nc2ccc(OCC(=O)N3CCOCC3)cc2)cc1,5.18%
7,CCn1c(O)c(C=NCc2ccccc2)sc1=S,7.15%
8,COc1ccccc1NC(=S)NC1CCCCCCCCCCC1,9.77%
9,CCOC(=O)CSc1nc2cc3c(cc2cc1C#N)OCCO3,19%
10,CCc1ccc(C(=O)Cn2cnc3cc([N+](=O)[O-])ccc3c2=O)cc1,-12.4%
11,CCC(NC(=O)C(C)NC)C(=O)N1CCCC1C(=O)NC1CCCc2ccccc21.O=CO (stereo not drawn),11.1%
12,COc1ccc(OC)c(CCNC(=O)Cn2cccc2C(=O)c2ccccc2)c1,-8.08%
13,CC1CCN(C2=NC(=O)/C(=C/c3ccc(O)cc3)S2)CC1,-24.7%
14,COc1cccc(CN2CCCC(C(=O)Nc3ccc(-c4cscn4)cc3)C2)c1 (stereo not drawn),-31.1%
15,Cc1cccc(/C=N/Nc2cc(N3CCOCC3)nc(N3CCOCC3)n2)c1,5.07%
16,NNC(=O)c1n[nH]c(=O)c2ccccc12,-5.39%
17,CCOC(=O)Cn1nc(-c2ccc(C)cc2)c2ccccc2c1=O,35.8%
18,Cc1cc(Cl)cc(C)c1OCCNCc1ccccc1.O=C(O)C(=O)O,-3.66%
19,O=C(CSc1nnnn1-c1ccc(C(=O)O)cc1)NC1CC1,2.23%
20,CCOc1ccc(N(CC(=O)NCCSCc2ccco2)S(=O)(=O)c2ccc(C)cc2)cc1,10.1%
21,CC1CN(S(=O)(=O)c2cccc(C(F)(F)F)c2)C(C)N1C(=O)N1CCOCC1 (stereo not drawn),24.9%
22,CC(C)(C)c1ccc(OCc2ccc(C(=O)N/N=C/c3ccc([N+](=O)[O-])cc3)o2)cc1,3.69%
23,O=C(O)Cn1nc(C(F)(F)F)c2c1CCCCC2,-2.55%

row,SMILES,"hERG current change (%, negative = inhibition) at 10uM"
1,COC(=O)c1cc(=O)n(Cc2ccco2)c(=Nc2ccc(F)cc2)s1,-7.31%
2,O=C(c1cc2ccccc2o1)N1CCN(c2ccccn2)CC1,-1.59%
3,O=C(COc1coc(CN2CCN(c3ccccc3)CC2)cc1=O)NC1CCCC1,-13.6%
4,Cc1ccc(C)c(N2CCN(CCCNC(=O)Cn3c(=O)c4cccn4c4cccnc43)CC2)c1,-59.6%
5,CCSc1nnc(CNC(=O)C23CC4CC(CC(C4)C2)C3)n1Cc1ccccc1,-5.81%
6,CC(=O)Nc1nc(-c2ccc(Cl)cc2)nc(C)c1C(C)=O,-19.8%
7,COc1ccc(C2CC2C(=O)c2ccccn2)cc1 (stereo not drawn),8.72%
8,COc1ccc(-c2nnn(CC(=O)N(CCN3CCOCC3)C(C(=O)NC3CCCCC3)c3ccco3)n2)cc1 (stereo not drawn),-10.3%
9,O=C(NNS(=O)(=O)c1ccccc1)Nc1ccc(F)cc1,16.5%
10,CCOC(=O)c1ccc(N2C(=O)CC(Sc3nnc(C)s3)C2=O)cc1 (stereo not drawn),9.58%
11,COCc1[nH]nc2c1C(c1cc(OC)c(O)c(OC)c1)C(C#N)=C(N)O2 (stereo not drawn),7.72%
12,COc1cccc(-c2nnn(CC(=O)N3CCC(C)CC3)n2)c1,15.2%
13,CCCn1nc(NC(=O)c2cccs2)c2cc3ccccc3nc21,-25.8%
14,Cc1ccc(Sc2c([N+](=O)[O-])ncn2C)cc1,3.39%
15,O=C(OCc1nnc(-c2ccccc2)o1)c1ccc(Br)o1,8.29%
16,CC(NC(=O)NC1CCCCC1)C(c1cccs1)N1CCOCC1 (stereo not drawn),12.3%
17,CC(C)c1cc(C(F)(F)F)n2nc(C(=O)Nc3ccc(-n4cnnn4)cc3)cc2n1,14.2%
18,O=C(CC1(O)C(=O)Nc2cc(Cl)cc(Cl)c21)c1ccccc1O (stereo not drawn),6.92%
19,Cc1nc(Cl)c2oc3ccccc3c2n1,9.28%
20,CCCCN(CC)C(=O)Cc1c(C(=O)O)[nH]c2ccc(Cl)cc12,12.4%
21,CCOC(=O)CCCNC(=O)COC(=O)/C=C/c1ccc2c(c1)OCO2,-2.45%
22,CCOc1ccc(N2C(=O)/C(=C/c3cccs3)N(C)C2=S)cc1,15.3%
23,Cc1ccc(S(=O)(=O)N2CCCCC2)cc1NC(=O)Cn1ccsc1=N.Cl,-33.7%

row,SMILES,"hERG current change (%, negative = inhibition) at 10uM"
1,COc1ccc(CCNC(=S)c2ccccc2)cc1OC,1.76%
2,COc1ccc(S(=O)(=O)N2CCN(c3ccc(F)cc3)CC2)cc1C(=O)N1CCCC1,-10.9%
3,Cc1ccc(S(=O)(=O)N(OCc2ccccc2)C(C)C(=O)O)cc1 (stereo not drawn),12.4%
4,CC1CCN(c2ccc(C(F)(F)F)cc2N)CC1,-0.321%
5,O=C1C(Cl)=C(NCC2CCCO2)C(=O)N1Cc1ccccc1 (stereo not drawn),-5.45%
6,CCOc1ccccc1NC(=S)NNS(=O)(=O)c1c(C)cc(C)cc1C,20.6%
7,COC(=O)c1cccc(-n2cnnn2)c1,10.7%
8,O=C(CSc1nnnn1-c1ccccc1)c1cc2ccccc2oc1=O,8.25%
9,Cc1n[nH]c(=S)n(/N=C/c2ccccn2)c1=O,23.3%
10,CNc1snc(C)c1C(=O)OCC(=O)c1cc(F)ccc1OC,-22.4%
11,Cl.O=C(COc1ccccc1CNCc1ccccc1)Nc1ccccc1,-34.8%
12,CCOC(=O)Cc1ncccc1C(=O)Nc1ccc(OC(F)(F)F)cc1,2.6%
13,COc1ccc(OC)c(C2C(C(=O)c3cc4ccccc4o3)=C(O)C(=O)N2c2cc(C)on2)c1 (stereo not drawn),2.7%
14,CC(N)Cc1c[nH]c2ccc(OCc3cccs3)cc12.Cl (stereo not drawn),-43.1%
15,COc1ccc(C(CNC(=O)c2cc(S(=O)(=O)NCc3ccccc3)ccc2C)N2CCOCC2)cc1 (stereo not drawn),-19%
16,CC(OC(=O)c1cn(C)c2ccccc12)C(=O)N1CCCC1 (stereo not drawn),16.4%
17,CC(C)NC(=S)N1CCn2c(nc3ccccc32)C1,15%
18,COC(=O)c1ccc2c(c1)C(=O)/C(=C/c1ccc(C)cc1)O2,-4.95%
19,COc1ccc(N2CCN(C(=S)NC(C)c3ccccc3)CC2)cc1 (stereo not drawn),5.25%
20,COCc1cc(Sc2ccc(Cl)cc2)nc(-c2ccccc2)n1,-6.47%
21,Cc1cc(C(=O)Nc2ccccc2N2CCOCC2)ccc1[N+](=O)[O-],-0.267%
